Data from PubChem BioAssay AID1347073 (National Center for Advancing Translational Sciences (NCATS), 2019).
The campaign covered roughly 45,000 compounds. About 200 (0.44%) were called active. Another 7% or so got no clear call; they are omitted. Calls follow the shape of the dose curve; as a rule, active = well fitted activation curve with a large enough effect; inconclusive = small, poorly fitted or top-dose-only effect; inactive = no such curve, though single readings can be large or run the other way. Some of the results follow.

Assay: qHTS of TDP-43 Inhibitors: NCGC Sytravon Library Screen; also: nearly all actives have a fitted effect of over 55% in size; as to growth rescue (activation): 0% is about no effect
Conditions: yeast TDP-43 toxicity rescue, BacTiter-Glo growth, 24 h; series mostly up to 46.1 µM; growth rescue (activation): at the top concentration
Summary of the method: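 TDP-43-expressing yeast, pregrown in raffinose, seeded at OD600 0.02 in galactose medium with compound for 24 hr at 30 deg C. Growth read by BacTiter-Glo luminescence, so rescue of toxicity appears as activation.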
Potency is read from the fitted curve at half-maximal effect.

Compound | growth rescue (activation) | Potency
O=C(Nc1cccc(C(F)(F)F)c1)Nc1ccc(N2CCCC2)c(S(=O)(=O)Nc2ccccc2Cl)c1 | inactive: -8.18% | 
COc1ccc(Cl)cc1NC(=O)CSC1=NN2CCCC(=O)N=C2S1 |  | active: 14.1 µM
C=CCN1C(=O)/C(=C\c2cccc(OC(=O)c3ccco3)c2)SC1=S | inactive: 1.45% | 
COc1ccc(NC(=O)CC2(CC(=O)O)CCCC2)cc1 | inactive: 2.01% | 
CC(=O)c1cnc2c(-c3cccc(Br)c3)cnn2c1C | inactive: 19.9% | 
O=C(CSc1nc2cc(Cl)ccc2s1)NCc1ccc2c(c1)OCO2 | inactive: 13% | 
CN(C)c1ccc(-c2ccnc3c2CC(C)(C(=O)Nc2ccccc2)O3)cc1 (stereo not drawn) | inactive: 6.17% | 
CCN1C(=O)N(C(C)=O)C2C1N(C(C)=O)C(=O)N2C(C)=O (stereo not drawn) | inactive: -5.03% | 
O=C(Nc1ccc(OCc2ccccc2)cc1)Nc1nnc([C@@H]2C[C@H](O)[C@@H](CO)O2)s1 | inactive: 8.08% | 
CCC(=O)NCCc1nc2cc(NC(=O)c3ccc(Cl)cc3)ccc2n1C | inactive: -33.1% | 
O=C(N/N=C/c1ccc(-c2cccc(C(F)(F)F)c2)o1)c1ccccc1O | inactive: 7.74% | 
CCSc1nnc(-c2cc(Br)ccc2NC(C)=O)c(=O)[nH]1 | inactive: 10.6% | 
COc1ccc(/C=N/Nc2nnc(Cc3ccc(OC)c(OC)c3)c(=O)[nH]2)cc1 | inactive: -9.41% | 
CCOC(=O)C1=C(C)NC(=S)NC1c1cccs1 (stereo not drawn) | inactive: 22.9% | 
Cc1csc(NC(=O)CN2C(=O)C3CC=CCC3C2=O)n1 (stereo not drawn) | inactive: 13.9% | 
O=C(CCCCn1c(=O)[nH]c2ccsc2c1=O)NCCc1ccccc1 | inactive: 17.4% | 
O=C1/C(=C2/NCCN2C2CC(=O)N(c3ccccc3)C2=O)CC/C1=C\c1ccccc1 (stereo not drawn) | inactive: -5.53% | 
Cc1ccc(NCC(=O)Nc2ccc(Br)cc2)cc1F | inactive: 5.21% | 
Cn1ncc2c(NNC(=O)c3ccc(O)cc3)ncnc21 | inactive: -10.9% | 
COc1ccc(Cl)cc1S(=O)(=O)N(C)CC(=O)N1CCOCC1 | inactive: -19.9% | 
NC(=O)CN(c1ccc(Cl)cc1)S(=O)(=O)c1ccccc1 | inactive: -5.89% | 
NC1=NC2(CCCCC2)N=C(Nc2ccc(Br)cc2)N1 | inactive: -10.6% | 
COc1ccc(C2=NC(C)(C)N(CC(=O)Nc3ccc(F)c(F)c3)C2=O)cc1 | inactive: 31% | 

Compound | growth rescue (activation) | Potency
Cc1ccc(OCC(O)Cn2c(=N)n(CCN3CCCCC3)c3ccccc32)cc1 (stereo not drawn) | inactive: 3.61% | 
COc1ccc(C2C(C(=O)c3ccco3)=C(O)C(=O)N2c2nnc(C)s2)cc1OC (stereo not drawn) | inactive: 11.7% | 
CCOC(=O)C1CCN(C(=O)c2ccc(C)c(S(=O)(=O)N3CCCC3)c2)CC1 | inactive: 9.41% | 
COc1ccccc1/C=C/C=N/NC(=O)CN1CCN(S(=O)(=O)c2ccc(C)cc2)CC1 | inactive: 17.1% | 
COc1ccc(S(=O)(=O)N2CCOCC2)cc1NC(=O)CSc1ccccc1 | inactive: 15.9% | 
COc1ccc(N2CCN(CC(=O)NC(=O)NCc3ccco3)CC2)cc1 | inactive: -7.04% | 
O=c1oc2ccccc2c2[nH]ccc12 | inactive: -18% | 
Cc1cccc(-c2nc(Nc3ccc(O)cc3)c3ccccc3n2)c1 | inactive: 3.03% | 
CCN(CC)S(=O)(=O)c1cccc(-c2n[nH]c(=S)n2/N=C/c2ccc(OC)cc2)c1 | inactive: 28.7% | 
Cc1cc(C(=O)Nc2ccccc2C(=O)O)c(C)o1 | inactive: -32.2% | 
Cc1nc2nc(SCC(=O)NCCCN3CCCCC3)nn2c(C)c1Cc1ccccc1 | inactive: -3.91% | 
CCc1ccc(OCCNC(=O)c2ccccc2SCc2ccccc2)cc1 | inactive: 24.5% | 
O=C(O)c1cccc(S(=O)(=O)Nc2cccc(S(=O)(=O)N3CCCCCC3)c2)c1 | inactive: -14.9% | 
COc1ccc(OC)c(NC(=S)NCc2ccccc2OC)c1 | inactive: -3.37% | 
Cc1ccc(O)c(-c2cc(C(=O)Nc3cccnc3)[nH]n2)c1 | inactive: 9.89% | 
Cc1cccc(NC(=O)CN2C(=O)N/C(=C\c3cccn3-c3cccc(C(=O)O)c3)C2=O)c1 | inactive: 6.5% | 
CC(NC(=O)CCc1nnc(C2(c3ccc(Cl)cc3)CCC2)o1)C1CC1 (stereo not drawn) | inactive: -1.84% | 
CCOC(=O)C1(CCOc2ccccc2)CCN(Cc2cccc(OC)c2OC)CC1 | inactive: -0.881% | 
CCOC(=O)c1cc(-c2nnc(SCC(=O)Nc3ccc(F)cc3)o2)c(C)nc1C | inactive: 18.6% | 
Cc1ccc(C(=O)NCCNC(=O)Cc2ccccc2)cn1 | inactive: 6.2% | 
FC(F)(F)c1ccccc1-n1c(-c2ccco2)n[nH]c1=S | inactive: 12.7% | 
CCNC(=O)CC1C(=O)N(CC)C(=S)N1NC(=O)c1ccccc1 (stereo not drawn) | inactive: -7.93% | 
CCN(CC)CCNC(=O)c1cc2c(=O)n(C)c3ccccc3c2s1 | inactive: -22% | 

Compound | growth rescue (activation) | Potency
COC(=O)c1nnn(-c2nc(N(C)C)nc(N(C)C)n2)c1C | inactive: 2.77% | 
Cc1cc(C)n2nc(SCC(=O)N3CCc4ccccc43)nc2n1 | inactive: 4.69% | 
c1ccc(-c2ccc(-c3[nH]ncc3CN3CCC(N4CCSCC4)CC3)cc2)cc1 | inactive: -3.73% | 
Cc1cc(C)n(CCC(=O)N/N=C/c2ccc(Cl)c([N+](=O)[O-])c2)n1 | inactive: 0.721% | 
Cc1cc(Nc2cccc(Cl)c2)nc(N2CCOCC2)n1 | inactive: 2.31% | 
COc1ccc(C(=O)N2CCN(C(=O)CC(C)C)CC2)cc1OC | inactive: -3.16% | 
CCNc1c(NS(=O)(=O)c2ccc(Cl)s2)c(=O)oc2ccccc12 | inactive: 19% | 
CC1CN(C(=O)C2CC(=O)N(c3ccc(Cl)cc3)C2)CC(C)O1 (stereo not drawn) | inactive: 6.74% | 
Cc1ccc2c(CN3CCCCC3C)cc(=O)oc2c1C (stereo not drawn) | inactive: 1.84% | 
O=C1CCCC2=C1C(c1cccc(O)c1)C1=C(N2)c2ccccc2C1=O (stereo not drawn) | inactive: 0.112% | 
COCCn1c(SCC(=O)N2CCOCC2)nnc1-c1ccco1 | inactive: 13.2% | 
COc1ccc(CNC(=O)Cn2cccc2C(=O)c2ccccc2C)cc1 | inactive: 23% | 
CCC(=O)NC(Nc1nc(C)cs1)(C(=O)OC)C(F)(F)F (stereo not drawn) | inactive: 15.2% | 
O=C(NC1CCCC1)c1cc2nc(-c3ccco3)cc(C(F)(F)F)n2n1 | inactive: 21% | 
Cc1cccc(C)c1N(CC(=O)NCc1ccccc1)C(=O)c1csnn1 | inactive: -0.232% | 
Cc1cc(=O)oc2cc(OC(C(=O)O)c3ccccc3)ccc12 (stereo not drawn) | inactive: -25.8% | 
COCCNc1nc(NCCOC)c2sc(-c3ccccc3)cc2n1 | inactive: -0.252% | 
O=C(NNc1c2ccccc2nc2ccccc12)c1cc2ccccc2cc1O | inactive: -36.8% | 
O=Cc1cc(Cl)ccc1OCCN1CCC(Cc2ccccc2)CC1 | inactive: -0.576% | 
CC(C1CC2CCC1C2)N1CC(O)=C(c2nc3ccccc3[nH]2)C1=N (stereo not drawn) | inactive: 28.7% | 
COc1ccccc1NS(=O)(=O)c1cccc(C(=O)N/N=C/c2ccc3c(c2)OCCO3)c1 | inactive: 4.07% | 
COc1ccc(NC(=O)N2CCCC(C(=O)Nc3ccccc3OC)C2)cc1 (stereo not drawn) | inactive: 18.1% | 
